According to the supplement of paper PMC12645437, “Orthogonal IMiD-Degron Pairs Induce Selective Protein Degradation in Cells” (ACS Chemical Biology, 2025):
This is one part of the list.

Biological target: no compound (DMSO)
Assay: log2 fold change of degron read counts, EGFP-low vs EGFP+ sorted cells; higher = lower degron-EGFP level without compound (poor expression or instability)
Details: compound: DMSO control; 18 h
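Also: jurkat cells carrying a lentiviral library of mutant zinc finger degrons fused to EGFP plus mCherry, mCherry+ cells FACS sorted, degron abundance counted by next-generation sequencing.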

Question: FTCPVCGAPFTQKGNLLRHIKL was tested. Which “log2 fold change of degron read counts” value did it give?
Answer: 0.546

Question: How did the “log2 fold change of degron read counts” value turn out when FVCDICGANFTQKGNLLRHIKL was run?
Answer: -2.24

Question: FRCNVCGALFTQKGNLLRHIKL was tested. Which “log2 fold change of degron read counts” value did it give?
Answer: -0.701

Question: For FVCEVCGAIFTQKGNLLRHIKL, which “log2 fold change of degron read counts” value is on record?
Answer: -1.8

Question: Which “log2 fold change of degron read counts” value does the source give for FKCNICGATFTQKGNLLRHIKL here?
Answer: -0.686

Question: With FECEICGRSFTQKGNLLRHIKL as the sequence, how does the “log2 fold change of degron read counts” value read?
Answer: -2.21

Question: For FSCNVCGALFTQKGNLLRHIKL, which “log2 fold change of degron read counts” value is on record?
Answer: -0.872

Question: FRCEQCGAVFTQKGNLLRHIKL was tested. Which “log2 fold change of degron read counts” value did it give?
Answer: -1.05

Question: With FYCPICGAYFTQKGNLLRHIKL as the sequence, how does the “log2 fold change of degron read counts” value read?
Answer: 0.894

Question: How did the “log2 fold change of degron read counts” value turn out when LACEICGFTCTQKGNLLRHIKL was run?
Answer: -0.905

Question: For FDCEICGAKFTQKGNLLRHIKL, which “log2 fold change of degron read counts” value is on record?
Answer: -1.23

Question: Which “log2 fold change of degron read counts” value does the source give for FLCNICGAIFTQKGNLLRHIKL here?
Answer: 0.288

Question: For FCCDICGAEFTQKGNLLRHIKL, which “log2 fold change of degron read counts” value is on record?
Answer: -2.49

Question: For FICEICGAMFTQKGNLLRHIKL, which “log2 fold change of degron read counts” value is on record?
Answer: -0.373

Question: How did the “log2 fold change of degron read counts” value turn out when FSCEICGAKFTQKGNLLRHIKL was run?
Answer: -1.41

Question: Which “log2 fold change of degron read counts” value does the source give for FTCPVCGAVFTQKGNLLRHIKL here?
Answer: -0.0687

Question: How did the “log2 fold change of degron read counts” value turn out when FHCNQCGATFTQKGNLLRHIKL was run?
Answer: -1.32

Question: FKCPVCGATFTQKGNLLRHIKL was tested. Which “log2 fold change of degron read counts” value did it give?
Answer: -0.891

Question: For FQCSVCGHKFTQKGNLLRHIKL, which “log2 fold change of degron read counts” value is on record?
Answer: -1.41

Question: For FWCEICGAQFTQKGNLLRHIKL, which “log2 fold change of degron read counts” value is on record?
Answer: -0.981

Question: With FDCNQCGARFTQKGNLLRHIKL as the sequence, how does the “log2 fold change of degron read counts” value read?
Answer: -0.388

Question: FTCSVCGHNFTQKGNLLRHIKL was tested. Which “log2 fold change of degron read counts” value did it give?
Answer: -0.664

Question: For FMCPICGAVFTQKGNLLRHIKL, which “log2 fold change of degron read counts” value is on record?
Answer: -0.17

Question: FICNICGAFFTQKGNLLRHIKL was tested. Which “log2 fold change of degron read counts” value did it give?
Answer: -0.263

Question: With FHCDVCGARFTQKGNLLRHIKL as the sequence, how does the “log2 fold change of degron read counts” value read?
Answer: -2.37

Question: With LTCNQCGFDCTQKGNLLRHIKL as the sequence, how does the “log2 fold change of degron read counts” value read?
Answer: -0.787

Question: With LSCEICGFGCTQKGNLLRHIKL as the sequence, how does the “log2 fold change of degron read counts” value read?
Answer: 0.343

Question: For FNCNQCGAPFTQKGNLLRHIKL, which “log2 fold change of degron read counts” value is on record?
Answer: -0.156

Question: For LHCPICGFGCTQKGNLLRHIKL, which “log2 fold change of degron read counts” value is on record?
Answer: 0.9

Question: How did the “log2 fold change of degron read counts” value turn out when FTCSVCGHPFTQKGNLLRHIKL was run?
Answer: -0.321

Question: With FECNQCGAAFTQKGNLLRHIKL as the sequence, how does the “log2 fold change of degron read counts” value read?
Answer: -1.27

Question: For FDCEICGRDFTQKGNLLRHIKL, which “log2 fold change of degron read counts” value is on record?
Answer: -0.809

Question: Which “log2 fold change of degron read counts” value does the source give for FYCPVCGAPFTQKGNLLRHIKL here?
Answer: 0.302

Question: With LFCEICGFNCTQKGNLLRHIKL as the sequence, how does the “log2 fold change of degron read counts” value read?
Answer: 0.411

Question: FCCEVCGALFTQKGNLLRHIKL was tested. Which “log2 fold change of degron read counts” value did it give?
Answer: -0.838

Question: FFCNQCGHGFTQKGNLLRHIKL was tested. Which “log2 fold change of degron read counts” value did it give?
Answer: 0.756

Question: Which “log2 fold change of degron read counts” value does the source give for LDCEICGFWCTQKGNLLRHIKL here?
Answer: 1.81

Question: For FGCNICGALFTQKGNLLRHIKL, which “log2 fold change of degron read counts” value is on record?
Answer: 0.203

Question: For FWCNVCGALFTQKGNLLRHIKL, which “log2 fold change of degron read counts” value is on record?
Answer: 1.03

Question: For FYCDVCGAPFTQKGNLLRHIKL, which “log2 fold change of degron read counts” value is on record?
Answer: -0.258

Question: How did the “log2 fold change of degron read counts” value turn out when FCCNQCGALFTQKGNLLRHIKL was run?
Answer: -0.828

Question: For FGCNVCGATFTQKGNLLRHIKL, which “log2 fold change of degron read counts” value is on record?
Answer: -1.55

Question: Which “log2 fold change of degron read counts” value does the source give for FCCEQCGAGFTQKGNLLRHIKL here?
Answer: -1.11

Question: How did the “log2 fold change of degron read counts” value turn out when LNCNQCGFKCTQKGNLLRHIKL was run?
Answer: 0.695

Question: FTCEICGASFTQKGNLLRHIKL was tested. Which “log2 fold change of degron read counts” value did it give?
Answer: -1.66

Question: Which “log2 fold change of degron read counts” value does the source give for FICEVCGAAFTQKGNLLRHIKL here?
Answer: -2.14

Question: With FGCDVCGAKFTQKGNLLRHIKL as the sequence, how does the “log2 fold change of degron read counts” value read?
Answer: -1.17

Question: FLCEVCGAIFTQKGNLLRHIKL was tested. Which “log2 fold change of degron read counts” value did it give?
Answer: -0.712

Question: With FTCEICGHRFTQKGNLLRHIKL as the sequence, how does the “log2 fold change of degron read counts” value read?
Answer: -1.78

Question: FVCNICGACFTQKGNLLRHIKL was tested. Which “log2 fold change of degron read counts” value did it give?
Answer: -0.217
